# Some of the results follow.
# System: PfAP2-HC AP2 domain (GST-tagged)
# Test: gcPBM binding intensity (ln(normalized median fluorescence intensity)); higher = stronger DNA binding
# Outline: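 GST-tagged P. falciparum DNA-binding domains, expressed in E. coli (about 25 μg on average), were applied for 1 h to an Agilent 4 × 180k array of primer-extended double-stranded 36-bp intergenic genomic probes plus negative controls. The binding buffer was 1× PBS with 1% milk, 0.2 mg/ml BSA, 0.5% salmon testes DNA and 0.03% Triton X-100. Bound protein was detected with Alexa488 anti-GST antibody and scanned at 488 nm. Binding intensity is the highest Masliner-normalised natural-log median intensity across replicate spots of either probe orientation.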
row,Sequence,gcPBM binding intensity (ln)
1,TTGCTGTATTTATTTTGTACACATTTGGCATTATAT [XGTACX_site3408],9.89
2,AAAAAAAAAAGAAAGAGTACTTTTTCAATACATATA [XGTACX_site2468],9.34
3,AAGAAAAACAATACGTGTACCAAGCATCCTACTAAC [XGTACX_site6628],10.4
4,ATATACTATTATGTGTGTACATAATAATTTATTATA [XGTACX_site3776],9.75
5,TCATACATTTTCCTTGCACACATTTATAATTAATGG [CACACA_site4511],9.96
6,TAAAACAAAAAAAAGATGCACTATTTATTTTATTAT,9.53
7,AAAAAAATATATATATATATATATATATTATATATG [GTGCAC_negctrl_site654],9.48
8,TAATTATAGGTATACACACACATACATTTACATAAC [CACACA_site7509],10.7
9,TTTTATTATTTTTGTTGTACAGTATACTGTATGATT [XGTACX_site5359],9.69
10,AAAAAAAAGGAAAATAAAAATAAAAAAAAATAATAA [XGTACX_negctrl_site601],9.5
11,TGAGAAAAAAAGAATTGTACATATAAAATATAACAA [XGTACX_site3500],9.48
12,TTATCACATTATTGCACACACATAAAGAAAAAAATA [CACACA_site2841],9.94
13,AAAGATACTTTCCTCAAACACACAAAACTATACAAC [CACACA_site1475],9.91
14,AATAAAAAGAAACACACACACACACCCATATATATA [CACACA_site3589],11.5
15,ATATAAGAACAAAATTGTACATAAATATTTATATAA [XGTACX_site7404],9.78
16,TTTTTTGTTATTTTCCGTTTTTTTCCATTATAATTT [GTGCAC_negctrl_site461],9.85
17,TATTCAAAGAAAAACTGTACGTGTAGCCTACATCCT [XGTACX_site7707],9.46
18,ACGTTAAAAACAAGTTGTACACAATAAATTATTCTT [XGTACX_site6321],9.75
19,TATATATATATATGTAGTACTTTACAAAATAATTCG [XGTACX_site5322],9.59

row,Sequence,gcPBM binding intensity (ln)
1,TTTATATTTATGTAGGTGCATTTGTTTACAACATAT [GTGCAC_site9511],9.75
2,TTATTTATACGCTATGAGTTTGATACAAACAATTAA [XGTACX_negctrl_site456],9.56
3,TTTTTACGGAATTAGAGAAAAGAAATAAAAAAAAAA [XGTACX_negctrl_site436],9.14
4,TAGTTATCACATTGCACACACATTTCCTTTTACATT [CACACA_site7589],10.2
5,GCATAACCTTTATATTGTACATATACCTTTATTGTT [XGTACX_site6046],10.2
6,AATAAATTCATGATAGTGCAAAAATTATTTTTGTTA,9.66
7,AAAGATGATAAAATATGTACACACAGTTTATACATT [XGTACX_site8703],9.95
8,TGAGTCTTTTACATTGCACACACATTTCTTTCCTTT [CACACA_site8978],10.3
9,ATTATCCATCAAAAGGTGCAAATTTTTAATTATAAA [GTGCAC_site9932],9.49
10,ATATATGTATATATGTACATGAATATATAAAGAAAA [CACACA_negctrl_site315],9.99
11,GTTTATATTTAATTTTTTTGTTTTTTTGTGTAATTC [XGTACX_negctrl_site194],9.66
12,TATTTATACTAATATGCATGTAATCGAAATACAGCT [TGCATGCA_site457],9.6
13,ACAAATAAATAAATATGTACTTAATTATATAATTGA [XGTACX_site5626],9.5
14,ATATATATAAACAAAAGTACATATATAAATTCATTT [XGTACX_site3482],9.63
15,TCTTATATTATATTGTGTATTAAAATTTAACTTCAA [TGCATGCA_negctrl_site565],9.57
16,TTAAAGTTACATTCGACACACACATAACAACTAAAT [CACACA_site9130],10.1
17,AATAAAAAAAAAATATATATTTTTTTTTTTTTTTTT [CACACA_negctrl_site54],9.4
18,ATCTATTCACACTTTTAAAAATTAAATATATTATAT [TGCATGCA_negctrl_site610],9.58
19,TAATTTTTTTTTTATAGTACACATATTAAAGAATTA [XGTACX_site2485],9.31

row,Sequence,gcPBM binding intensity (ln)
1,ATAAGAAGAAGAAAAACACACATATGTAGATATATA [CACACA_site7469],9.86
2,ATATATATATATATATGTACTTATTTATATATTTAT [XGTACX_site7811],9.5
3,GTATATATTAAAAAAAAAAAAAAAAAATTAAAATTA [CACACA_negctrl_site572],9.24
4,GGAATATTAATAAGAGTGCATTTTGTATTCAATATG,9.59
5,AAAAAAAAAATTCATTGTACATATATATATATATAT [XGTACX_site8346],9.63
6,TAGACTGGACATTAATGTACATAAATATATATGTAT [XGTACX_site7726],9.71
7,TATAAGAAAAATAACACACACATAAACATATATACA [CACACA_site2785],10.3
8,TTATTGTACTTGCTCGCATGCAATAAAAATATATTA [TGCATGCA_site580],9.43
9,ATGCTTCCTTAGGAATGTACACACATATATAATATG [XGTACX_site873],9.82
10,ATAAAAATAAAAAACTGTACATACAAGATGTTACAG [XGTACX_site6690],9.6
11,AAATAATATTTTACATGTACATAATAATTATTGGAT [XGTACX_site2783],9.62
12,TAAATATTTAAATATTGTACTAGGTATAATTGAATA [XGTACX_site3604],9.6
13,ATATTGTATTATCTTTATGTACCAAAAAAAAAAAAA [CACACA_negctrl_site1036],9.22
14,ATTATTAATAATTGTGTGCACAAATATTTATATGCT,9.93
15,ATATCAATATAAAGTACACACTATAGTATGTATTAT [CACACA_site5286],10.1
16,TTTATACAATTAGACACACACAAAAAGTATATATAT [CACACA_site1082],10.2
17,CATTCAAAGAAAAACTGTACGTGTAGCAAACGTCAT [XGTACX_site2576],9.63
18,ATATAATTACATTGATGTACACGAAATGATTAACAT [XGTACX_site5183],9.73
19,ATGGGTATATTTCCACGTACAAAAAATCCGAATTGC [XGTACX_site1490],9.45

# From the supplement of paper PMC11417369
